Measurements from PubChem BioAssay AID652104 (National Center for Advancing Translational Sciences (NCATS), 2013).
Values joined by “and” are separate entries in the source; they are usually repeats but may differ in a detail not shown here. Equal entries are not always repeated. About 7,200 (1.8%) of roughly 410,000 compounds were called active. Inconclusive means that the source gave no clear call. Such entries were picked first, then a sample of the others. The call rests on the fitted dose curve; in most records, active means well fitted activation curve with a large enough effect; inconclusive means small, poorly fitted or top-dose-only effect, or another doubt; inactive means no such curve, though single readings can be large or run the other way. Where the call is inconclusive, the potency comes from a doubtful curve fit.

assay: qHTS of TDP-43 Inhibitors; details: TDP-43 expressing yeast growth rescue, BacTiter-Glo, 24 h; growth rescue (activation): at 46.1 µM (top of the series) unless noted; further: nearly all actives have a fitted effect of over 50% in size; on growth rescue (activation): % of control where 0% means no effect
Summary of the method: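 Cell-based yeast growth screen: TDP-43 expression induced in galactose, inoculum OD600=0.02 after raffinose pregrowth to mid-log. Read-out BacTiter-Glo luminescence at 24 hr, 30 deg C; inhibition of toxicity seen as signal increase.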
Potency means the concentration at half of the fitted maximal effect; tags describe the fitted curve by direction and shape.

Potency, active:
CN(C1=C(NC(=O)c2ccc(Cl)cc2)C(=O)c2ccccc2C1=O)c1ccccc1 35.5 µM
CCOc1ccc(S(=O)(=O)NCC(c2cccs2)S(=O)(=O)c2ccc(C)cc2)cc1 (centres undefined) 2.82 µM
Cc1c(C(=O)N2CCN(S(=O)(=O)c3ccccc3)CC2)oc2ccccc12 15.8 µM
COc1cccc(-c2nc(N3CC(C)CC(C)C3)c3ccccc3n2)c1O (centres undefined) 12.6 µM
COc1ccc(-c2nc(C)c(CCNC(=O)c3ccccc3Br)s2)cc1OC 11.2 µM
O=C(O)c1ccccc1NC(=O)N1c2ccccc2Sc2ccccc21 20 µM
COc1cccc(-c2cnc3c(NC(C)=O)cc(-c4ccccc4OC)cn23)c1 20 µM
CCOC(=O)c1c(-c2cccc([N+](=O)[O-])c2)csc1N 17.8 µM
Cc1ccc(NC(=S)NC(=O)C2CCCC2)c(Br)c1 14.1 µM

Potency, inconclusive:
CCOC(=O)c1cnc2c(c(C)nn2C)c1Oc1ccccc1F 35.5 µM [activator, single point]
CCOC(=O)c1ccc(N2C(=O)C3CCCN3C2=S)cc1 (centres undefined) 35.5 µM [activator, partial curve]
CNc1snc(C)c1C(=O)OCC(=O)c1ccc(Cl)cc1 12.6 µM [activator, single point]
C=C(C)[C@@H]1CC=C(CO)CC1 31.6 µM [activator, partial curve]
Cc1nnc(-c2cccc(Br)c2)c2cn(-c3ccc(Br)cc3)nc12 2 µM [activator, partial curve]
CC(C)(C)NC(=O)CCSc1nc(-c2ccc3c(c2)OCO3)cc(C(F)(F)F)n1 35.5 µM [activator, partial curve, poor fit]
COc1cc(-c2noc(C)c2C#Cc2nccn2C)cc(OC)c1OC 17.8 µM [activator, partial curve]
O=C(COC(=O)c1cccc2c1C(=O)c1ccccc1C2=O)NC1CCCCC1 14.1 µM [activator, partial curve]
OC(c1ccc(F)cc1)c1nc(-c2cccs2)cs1 (centres undefined) 35.5 µM [activator, partial curve, poor fit]
Cc1ccc(CNC(=O)COc2cccc3c2OC(C)(C)C3)cc1 35.5 µM [activator, single point]
O=C(Nc1cccc(Cl)c1)c1cnccn1 8.91 µM [activator, partial curve]
O=S(=O)(NCCc1ccccc1)c1ccc(Br)s1 12.6 µM [activator, single point]
CC1(C)CC(=O)C(C(C2=C(O)CC(C)(C)CC2=O)c2cccs2)C(=O)C1 (centres undefined) 35.5 µM [activator, single point]
Cc1nn2c(-c3cccnc3)ccnc2c1-c1ccccc1 11.2 µM [activator, partial curve]
Cc1nn(-c2ccccc2)c2c1C(=O)N(Cc1ccccc1)C(=O)C(C)(C)C2 31.6 µM [activator, single point]
N/C(=N/OC(=O)c1ccccc1Cl)c1ncc([N+](=O)[O-])s1 25.1 µM [activator, single point]
CCOc1ccc(CCN2C(=S)N([C@@H](CC(C)C)CN3CCC[C@@H]3CN3C(=S)NC[C@@H]3Cc3ccc(O)cc3)C[C@@H]2CC(C)C)cc1 5.01 µM [activator, full curve, poor fit]
CCc1ccc(/C=c2\s/c(=C\C(=O)C(C)(C)C)[nH]c2=O)cc1 31.6 µM [activator, single point]
O=C(NCc1ccco1)C1Cc2cc(Cl)ccc2O1 (centres undefined) 15.8 µM [activator, single point]
COc1cc(NC(=O)c2nccnc2N)cc(C(=O)Nc2cccc(C(F)(F)F)c2)c1 6.31 µM [activator, single point]
CC1CCCCC1NC(=O)COCc1cc(-c2cccs2)on1 (centres undefined) 14.1 µM [activator, single point]
O=[N+]([O-])c1cc(C(F)(F)F)ccc1-n1nnc2ccccc21 1.12 µM [activator, full curve, poor fit]
COc1ccc(C2SCCN2S(=O)(=O)c2ccccc2)cc1OC (centres undefined) 17.8 µM [activator, single point]
S=C(Nc1ccccc1)c1ccccn1 31.6 µM [activator, single point]
Cc1c(Cl)cccc1NC(=S)NCc1ccccc1 12.6 µM [activator, single point]
CC(O)[C@@]1(O)CC[C@H]2[C@@H]3CC[C@H]4C[C@@H](O)CC[C@]4(C)C3=CC[C@@]21C (some centres undefined) 3.98 µM [activator, single point]
Cc1cc(NC(=O)CC2CCCC2)ccc1Br 11.2 µM [activator, single point]
Cc1ccc(-c2c(C)n3c4c(=O)n(C)c(=O)n(C)c4nc3n2CCCO)cc1 35.5 µM [activator, single point]
C[C@H](CO)N1C[C@H](C)[C@H](CN(C)S(=O)(=O)c2ccc(C#N)cc2)OCc2cnnn2CCCC1=O 3.98 µM [activator, full curve]
CC(=O)c1ccc(NC(=O)CN2CCN(S(=O)(=O)c3ccc4ccccc4c3)CC2)cc1 22.4 µM [activator, partial curve]
COc1ccccc1OCc1cc(C(=O)N(C)CCC2CCOCC2)no1 0.562 µM [activator, full curve, poor fit]
Cc1ccc(NNC(=O)C2CCC2)cc1C 14.1 µM [activator, partial curve]
O=S(=O)(c1ccccc1Cl)N1CCCC1c1nc(-c2cccc(Cl)c2)no1 (centres undefined) 15.8 µM [activator, single point]
CCC/C=C1/CCCOC(C(=O)NCc2ccc(C)o2)(C(F)(F)F)C1 (centres undefined) 15.8 µM [activator, single point]
Cc1ccccc1-c1nnc(SC(C)C(=O)NC2CCCC2)o1 (centres undefined) 12.6 µM [activator, partial curve, poor fit]
CCC(=O)N1c2ccc(S(=O)(=O)NCCc3ccccc3)cc2CC1C (centres undefined) 35.5 µM [activator, partial curve, poor fit] and 20 µM [activator, partial curve]
Cc1ccc(-n2ncc3c2CC(C)(C)CC3NC(=O)c2ccccn2)cc1 (centres undefined) 12.6 µM [activator, single point]
COc1ccc(C)cc1NC(=O)Nc1ccccc1SC 35.5 µM [activator, single point]
CCc1nc(N2CCN(C(=O)c3ccco3)CC2)c2c3c(sc2n1)CCCC3 35.5 µM [activator, single point]
O=C(OCC(=O)N1CCc2ccccc21)c1ccccc1[N+](=O)[O-] 6.31 µM [activator, full curve]
O=C1N(S(=O)(=O)c2ccccc2F)C(=O)C2(CCCC2)N1S(=O)(=O)c1ccccc1F 17.8 µM [activator, single point]
Cc1cc(Nc2cccc(O)c2)c2cccc(Br)c2n1 35.5 µM [activator, partial curve]
CSc1cccc(NC(=O)/C=C/c2ccco2)c1 22.4 µM [activator, partial curve]
CC(C)(C)C(=O)C(CO)(Oc1ccc(Cl)cc1)n1cncn1 (centres undefined) 3.55 µM [activator, single point]
CC(C)(C)n1nnnc1C(c1ccccc1)N1CCN(c2ncc(C(F)(F)F)cc2Cl)CC1 (centres undefined) 35.5 µM [activator, single point]

Growth rescue (activation), inactive:
CCN1CCN(C(=O)c2c(C)nn(-c3ccc(F)cc3)c2-n2cccc2)CC1 3.31%
COc1ccc(S(=O)(=O)c2cn(C)c3cc(N4CCOCC4)c(F)cc3c2=O)cc1 18%
O=C(NCc1ccc(F)cc1)C(=O)NCC(c1cccs1)S(=O)(=O)c1cccs1 (centres undefined) 10.6%
CCC(C(=O)NCCc1cc(OC)ccc1OC)n1nc(C)c2sc3ccccc3c2c1=O (centres undefined) 6.93%
CCCCOc1ccc(S(=O)(=O)NC(=O)C2(C)CCN2C(=O)c2cccc(F)c2)cc1 (centres undefined) 0%
COc1cc(-c2csc(C)n2)ccc1O 15.5%
COc1ccc(C(=O)Nc2cccc(-c3nc4cccnc4s3)c2C)c(OC)c1 0.0254%
Cc1cc(NC(=O)CSc2ccc(Cl)cc2)no1 3.32%
CCOC(=O)/C(=C(/C)N)C1CC(=O)NC1=O (centres undefined) 12.1%
COc1cc2c(cc1OC)C(c1cc(OC)c(O)c(OC)c1)CC(=O)N2 (centres undefined) 5.27%
Cc1ccccc1C(C(=O)NCc1ccco1)N(CC1CCCO1)C(=O)Cn1nnc2ccccc21 (centres undefined) 3.59%
CCOC(=O)C1CCN(c2ncnc3c2c(-c2ccccc2)cn3-c2ccc(C)c(Cl)c2)CC1 14%
CCOc1ccc(OCC(=O)c2c(O)c3ccccc3oc2=O)cc1 -7.45%
O=C(/C=C/Nc1cccc([N+](=O)[O-])c1)c1ccco1 -1.35%
COc1cccc(Cn2cccc(NC(=O)Nc3cccc(C#N)c3)c2=O)c1 -4.67%
